Laboratory results: the BET-seq Pho4 binding data (Le et al. 2018)
Some of the results follow. Values were computed here from the reads of four pooled replicates and scatter widely.

target: T1, Pho4 (S. cerevisiae) (UniProt P07270); assay: relative binding free energy (BET-seq); higher = weaker binding; settings: reference: library average
T1 sequence: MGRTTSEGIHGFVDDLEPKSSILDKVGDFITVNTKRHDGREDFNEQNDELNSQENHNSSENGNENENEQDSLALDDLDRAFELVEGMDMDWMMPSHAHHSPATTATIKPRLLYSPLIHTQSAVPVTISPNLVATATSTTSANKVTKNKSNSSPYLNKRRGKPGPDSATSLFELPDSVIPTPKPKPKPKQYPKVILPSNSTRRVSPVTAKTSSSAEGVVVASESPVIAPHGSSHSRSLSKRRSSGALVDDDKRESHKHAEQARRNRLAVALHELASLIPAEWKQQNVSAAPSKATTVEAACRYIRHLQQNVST

Sequence	relative binding free energy [kcal/mol]
TGGTACACGTGGGTTG	-0.03
AATGTCACGTGGTCGT	-0.1
GCTATCACGTGGGAGG	0.14
CTATTCACGTGGGGTA	0.17
TTCGTCACGTGGCGGT	0.11
AGAAACACGTGGGGTC	0.09
GGCTTCACGTGGTTAA	0.26
GAAGGCACGTGGGATG	-0.15
AGGGACACGTGTTATA	0.05
ATCGTCACGTGGCGTG	-0.13
TTAAGCACGTGTTACT	-0.08
AATGTCACGTGATGTA	0.12
ATATACACGTGATGGG	0.33
GTTCGCACGTGAGGAT	0.32
AGTTTCACGTGTTTGT	0.18
TGCGTCACGTGGGGGA	0.01
AGGCTCACGTGGGACT	0.29
TGAGACACGTGGTTAG	0.14
ACTTTCACGTGGATTT	0.19
CGGTGCACGTGTATAG	-0.02
TGGTACACGTGTATGG	0.05
GGGTGCACGTGAGGGG	0.23
TTCAACACGTGTTTAG	0.02
TATGGCACGTGGTTGC	-0.16
TTGGTCACGTGGGAAC	0.11

Sequence	relative binding free energy [kcal/mol]
GGCGACACGTGGTGTG	0.02
TGGCGCACGTGTTCGT	0.01
ATCGGCACGTGTGGGT	-0.01
GTCGGCACGTGCGGAT	0.02
ATGGGCACGTGGGTTT	-0.12
TGGAGCACGTGGTGGC	-0.03
GGGTCCACGTGGTGTT	0
TTTGCCACGTGTAGGG	0
TTCAGCACGTGCTGTG	-0.02
GGAATCACGTGATATG	0.27
TGGATCACGTGAGAGT	0.45
CTGGGCACGTGTTCGT	-0.01
AGGTTCACGTGGGGTG	0.23
GCGGTCACGTGTGTGC	0.06
GGTGGCACGTGACTCG	0.11
TTTACCACGTGTAAGT	0.05
TGGAGCACGTGGTTAA	-0.11
TTGTACACGTGTTACT	-0.09
TTACGCACGTGGTGGT	-0.22
CAGGTCACGTGGTGGG	-0.01
ATGTTCACGTGAGCGG	0.4
GGAGTCACGTGTGTTC	0.18
CTATCCACGTGTGGGT	0
TATTGCACGTGAGTTT	0.29
GCTTTCACGTGTTAGT	0.29

Sequence	relative binding free energy [kcal/mol]
TAAATCACGTGCGTTT	0.09
TTATACACGTGAGGAT	0.22
ATAGACACGTGGGCTG	-0.18
TCAAGCACGTGGTTTA	-0.12
GGTTGCACGTGAGGTA	0.34
TTTCTCACGTGTATAG	0.34
CGGATCACGTGTAGTA	0.29
CGGAGCACGTGGGCGG	-0.25
AACGTCACGTGTAGTT	0.17
GAGTACACGTGTGTAG	0.13
TAGTCCACGTGTAGGA	0.1
AATAGCACGTGGGGAT	-0.09
TGGGGCACGTGGTTGT	-0.14
ATTCACACGTGTTGAT	0.03
GAGTACACGTGGTTCG	0.13
ATGGTCACGTGGCGGA	0.03
TATTACACGTGGCGAG	0.08
AGATACACGTGCGGTG	-0.03
TCAAACACGTGGGTGT	-0.15
TTTTTCACGTGATGTT	0.42
TCGGACACGTGGTTGC	0.1
TTTGTCACGTGGCGCA	0.05
TGCTTCACGTGGTGTT	0.16
AGTCTCACGTGGGCGA	0.13
CGGTTCACGTGAAGCG	0.45

Sequence	relative binding free energy [kcal/mol]
ATTTGCACGTGATTAA	0.08
TTACTCACGTGAATTG	0.4
CTAGGCACGTGGCGTG	-0.28
TGTTACACGTGAGAAG	0.2
CGGGTCACGTGTTTGA	0
GTGCTCACGTGGGTGC	-0.02
TTATTCACGTGAAAAA	0.38
GTACTCACGTGGTTTT	0.26
ATGTTCACGTGCGGCA	0.19
ATTGGCACGTGACAGT	-0.05
TAACTCACGTGAGGGG	0.34
GTAAGCACGTGGAGGA	0.04
TTGCGCACGTGAGAGT	0.17
CTGTACACGTGGGGCG	0.01
GATAGCACGTGGGAAT	0.04
TTGGTCACGTGATGTG	0.26
GTCGGCACGTGATGTA	0.07
TTGAGCACGTGGTGAC	-0.02
TTATACACGTGTTTCG	-0.02
GGGAGCACGTGACGTT	0.1
ATGCTCACGTGGTATG	0.3
GTTTTCACGTGACATA	0.39
CGTGGCACGTGGGGGC	-0.21
TCTATCACGTGATGGT	0.27
TAAGTCACGTGTAGAG	0.05

Sequence	relative binding free energy [kcal/mol]
GGGCGCACGTGTTGGA	0.02
ACTGGCACGTGTCGGT	0.02
GTGATCACGTGTTTGT	0.16
CGCGTCACGTGTTGTT	0.09
GATTGCACGTGAGTAT	0.28
ATGATCACGTGTATGG	0.2
TGATTCACGTGAATGA	0.58
CTGATCACGTGTTTGA	0.01
TGTCACACGTGGGGTT	-0.09
CGTGTCACGTGGTTGA	-0.04
ATTGGCACGTGTAGAT	-0.05
CTTAACACGTGTGGTA	0.01
TTTTTCACGTGTGTGT	0.32
ACGGACACGTGGCGGG	0.01
ATTTGCACGTGTACGA	0.13
AAAGGCACGTGGATAG	-0.14
AATTACACGTGATCTT	0.26
TTCGTCACGTGGAGTG	0.11
TATTTCACGTGCAGTG	0.14
AGGAACACGTGGGGGG	-0.04
TTACGCACGTGTCTGT	-0.04
GGGGACACGTGGCCGT	-0.09
GTAGTCACGTGGAGTG	0.23
TGGCGCACGTGGACGG	-0.07
TCGAACACGTGGGTGT	-0.14

Sequence	relative binding free energy [kcal/mol]
AAATACACGTGGTAGG	0.05
TACGTCACGTGATGGG	0.06
AGGGGCACGTGCTAAT	-0.15
AGGCCCACGTGGGGGT	-0.23
TAGTTCACGTGCGGTG	0.11
GGCTTCACGTGATGAG	0.33
GTATGCACGTGTGAAG	0.16
TATCACACGTGTGTGC	0.18
TAGTGCACGTGTGCAG	-0.15
GTATACACGTGGATTG	0.11
GGTGACACGTGATTAT	0.12
ACTGTCACGTGTTGCG	0.16
GTGTTCACGTGTAGGG	0.26
CGATACACGTGTGGGG	0.06
CCAGGCACGTGCGTGG	-0.1
AAGTTCACGTGGTATG	0.1
ATAAACACGTGGTTAT	-0.03
AAGATCACGTGGAGTG	0.27
TGTCGCACGTGGCAGG	-0.12
TGGCGCACGTGAGGAG	0.12
GTAGGCACGTGATTAG	-0.03
